Experimental data: PubChem BioAssay AID504332 (National Center for Advancing Translational Sciences (NCATS), 2011)
The campaign covered roughly 350,000 compounds. About 31,000 (8.9%) were called active. The inconclusive results got no clear call from the source; some entries with a clear call stand among them for comparison. Calls come from the whole dose curve; as a rule, active = well fitted inhibition curve with a large enough effect; inconclusive = small, poorly fitted or top-dose-only effect; inactive = no such curve, though single readings can be large or run the other way. A potency beside an inconclusive call is a rough fit, not a confirmed value.
% is set by controls: 0 for no effect and ±100 for the full control effect; potency is the fitted concentration of half-maximal effect; tags give direction and shape of the fitted curve.
Note: nearly all actives have a fitted effect of over 75% in size.

Each molecule was assayed against Histone-lysine N-methyltransferase EHMT2 (Homo sapiens) (UniProt Q96KQ7) (assay: qHTS Assay for Inhibitors of Histone Lysine Methyltransferase G9a). Conditions: G9a H3K9 monomethylation, AlphaScreen, 2 h; activity, negative = inhibition: at 59 µM (top of the series) unless noted.
Sequence of UniProt Q96KQ7 (Q96KQ7 whole entry, looked up): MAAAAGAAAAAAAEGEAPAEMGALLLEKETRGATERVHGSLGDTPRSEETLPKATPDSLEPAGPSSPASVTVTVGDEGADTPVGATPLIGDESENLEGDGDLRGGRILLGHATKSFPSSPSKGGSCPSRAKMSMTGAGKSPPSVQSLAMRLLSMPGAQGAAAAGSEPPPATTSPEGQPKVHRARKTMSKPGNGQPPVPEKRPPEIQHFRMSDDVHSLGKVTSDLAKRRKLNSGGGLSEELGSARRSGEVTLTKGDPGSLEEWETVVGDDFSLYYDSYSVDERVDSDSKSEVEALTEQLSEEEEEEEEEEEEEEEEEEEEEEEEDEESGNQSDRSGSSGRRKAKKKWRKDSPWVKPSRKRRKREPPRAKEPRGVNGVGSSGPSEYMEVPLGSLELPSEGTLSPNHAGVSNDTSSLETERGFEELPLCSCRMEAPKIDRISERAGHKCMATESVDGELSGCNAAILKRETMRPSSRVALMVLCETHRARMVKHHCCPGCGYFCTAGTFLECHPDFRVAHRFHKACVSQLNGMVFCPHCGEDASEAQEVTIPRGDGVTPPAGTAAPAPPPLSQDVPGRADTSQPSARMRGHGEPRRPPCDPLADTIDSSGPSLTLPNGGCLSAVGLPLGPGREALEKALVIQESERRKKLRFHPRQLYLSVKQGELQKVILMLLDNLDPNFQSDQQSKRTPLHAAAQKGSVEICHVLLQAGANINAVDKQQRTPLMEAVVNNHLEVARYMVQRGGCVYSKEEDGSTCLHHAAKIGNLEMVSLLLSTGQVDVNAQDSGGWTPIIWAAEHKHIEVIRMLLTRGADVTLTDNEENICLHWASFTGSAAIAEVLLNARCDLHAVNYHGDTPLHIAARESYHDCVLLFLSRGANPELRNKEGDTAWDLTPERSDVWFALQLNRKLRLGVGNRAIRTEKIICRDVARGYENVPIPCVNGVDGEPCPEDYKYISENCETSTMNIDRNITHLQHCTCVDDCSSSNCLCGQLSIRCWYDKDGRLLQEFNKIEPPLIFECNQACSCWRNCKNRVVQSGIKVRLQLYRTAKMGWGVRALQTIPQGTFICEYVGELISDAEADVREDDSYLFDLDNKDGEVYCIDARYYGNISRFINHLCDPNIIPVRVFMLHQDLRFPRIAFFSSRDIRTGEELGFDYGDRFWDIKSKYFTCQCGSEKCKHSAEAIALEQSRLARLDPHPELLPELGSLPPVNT
Outline: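 Enzyme 20 nM + cpd, 15 min RT; add b-H3K9 pep 500 nM / SAM 20 uM; 2 h RT; anti-H3K9me1 Ab 0.5 ug/mL + SA donor / anti-rabbit acceptor beads 20 ug/mL each, 10 min; AlphaScreen read.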
COCCSc1ccccc1C(=O)Nc1cc(C)cc(C)c1 was tested, and the Potency was active: 4.47 µM.
For Cc1nn(-c2ccccc2)c(OC(=O)c2ccccc2F)c1S(=O)(=O)c1ccccc1, the Potency was inconclusive: 20 µM [inhibitor, single point].
CCn1c(SCc2ccc(C(=O)OC)o2)nnc1-c1c[nH]c2ccccc12 was tested, and the Potency was inconclusive: 89.1 µM [inhibitor, single point].
For S=C(N/N=C/c1ccc(Cl)cc1)N1CCOCC1, the Potency was inconclusive: 39.8 µM [inhibitor, single point].
O=C(NNC(=S)NC(=O)c1ccccc1[N+](=O)[O-])c1ccc(Cl)cc1Cl was tested, and the Potency was active: 17.8 µM.
S=c1[nH]nc(-c2ccco2)n1/N=C/c1ccc(Br)s1 was tested, and the Potency was inconclusive: 0.355 µM [inhibitor, partial curve, poor fit].
For C=CCC1(Cl)C(=O)C(Cl)=C(N2CCOCC2)C1(OC)OC (stereo not drawn), the Potency was inconclusive: 39.8 µM [inhibitor, single point].
In the case of CC1=CC2=NC(=O)/C(=C/c3coc4ccccc4c3=O)C(=N)N2O1, the Potency was active: 44.7 µM.
For O=C(NCc1ccc2c(c1)OCO2)c1cc(=O)[nH]c2ccccc12, the activity, negative = inhibition was inactive: -2.27% [at 12.7 µM].
For COCCCNC(=O)C1CCN(C(=O)c2cc3sccc3n2Cc2ccc(F)cc2)CC1, the “activity, negative = inhibition” value was inactive: 3.7% [at 102 µM].
O=C(NCC1COc2ccccc2O1)C1CCCN(S(=O)(=O)c2cnc[nH]2)C1 (stereo not drawn) was tested, and the Potency was inconclusive: 63.1 µM [inhibitor, partial curve, poor fit].
In the case of O=C(CN1CCCCCC1)N1c2ccccc2Sc2ccccc21, the Potency was inconclusive: 39.8 µM [inhibitor, partial curve, poor fit].
In the case of C/C(=N\NS(=O)(=O)c1ccccc1)c1ccc2c(c1)OCCO2, the Potency was inconclusive: 39.8 µM [inhibitor, single point].
COc1ccc(NC(=O)NCc2ccccn2)c(OC)c1 was tested, and the “activity, negative = inhibition” value was inactive: 69.4% [at 102 µM].
For CCOc1ccc(C(=O)Nc2nnc(SCc3cc(=O)c4cc(C)ccc4[nH]3)s2)cc1, the “activity, negative = inhibition” value was inactive: -12.3%.
For CCCCCOC(=O)CSc1nc2c(c(=O)[nH]c(=O)n2C)n1CCc1ccccc1, the Potency was active: 12.6 µM.
With O=C(NCc1ccco1)c1noc2c1CCCC2 the Potency was inconclusive: 50.1 µM [inhibitor, partial curve, poor fit].
With CCn1c(=O)c2cc(C(=O)N3CCN(c4cccc(Cl)c4)CC3)sc2c2ccccc21 the Potency was inconclusive: 3.55 µM [inhibitor, full curve].
In the case of Cc1cccc(C)c1NC(=O)CSc1ncnc2nc[nH]c12, the “activity, negative = inhibition” value was inactive: -40.9% [at 102 µM].
Cn1cccc1C(=O)NCC1COc2ccccc2O1 (stereo not drawn) was tested, and the Potency was active: 50.1 µM.
CCCc1nc2c(C)cc(C)cc2c(N)c1CC was tested, and the activity, negative = inhibition was inconclusive: -135% [inhibitor].
In the case of COc1ccccc1NC(=O)CC(=O)c1ccccc1, the “activity, negative = inhibition” value was inactive: 18% [at 102 µM].
In the case of O=C(CCc1nnc2ccc(N3CCCC3)nn12)Nc1ccc(F)c(F)c1, the “activity, negative = inhibition” value was inactive: -8.85% [at 102 µM].
In the case of CCc1ccccc1NC(=O)CN1CCN(C(=O)CNC(=O)Cc2cccc3ccccc23)CC1, the Potency was inconclusive: 39.8 µM [inhibitor, single point].
With Cc1nn(Cc2ccccc2)c(C)c1NC(=O)CCCn1nc(C)c([N+](=O)[O-])c1C the “activity, negative = inhibition” value was inactive: -46.4%.
CC1=NCC(C)c2c1[nH]c1ccccc21 (stereo not drawn) was tested, and the Potency was active: 12.6 µM.
In the case of C=CCN(C(=O)c1csnn1)C(C(=O)NC(C)(C)C)c1ccncc1 (stereo not drawn), the “activity, negative = inhibition” value was inactive: 17.4% [at 102 µM].
With NS(=O)(=O)c1ccc(CCNC(=O)c2cc3ccccc3s2)cc1 the “activity, negative = inhibition” value was inactive: -31% [at 102 µM].
In the case of Cc1ccc(S(=O)(=O)c2cn(Cc3ccccc3F)c3cc4c(cc3c2=O)OCO4)cc1, the “activity, negative = inhibition” value was inactive: -1.68%.
Cc1cccc(C)c1NC(=O)C1(N2CCN(C(=O)c3ccco3)CC2)CCCCC1 was tested, and the Potency was inconclusive: 89.1 µM [inhibitor, single point].
With COc1ccc(C2OC(=O)CC2C(=O)NCc2ccc(Cl)cc2)cc1OC (stereo not drawn) the “activity, negative = inhibition” value was inactive: 25.4% [at 102 µM].
With Cn1ccnc1C(=O)C1CCCN(Cc2cn[nH]c2-c2ccc(-c3ccccc3)cc2)C1 (stereo not drawn) the Potency was inconclusive: 70.8 µM [inhibitor, single point].
In the case of CC(C)(C)n1nnnc1SCC(=O)Nc1nn(-c2ccccc2)nc1C(N)=O, the “activity, negative = inhibition” value was inactive: 12.6% [at 102 µM].
For COc1ccc(NS(=O)(=O)c2cc(NC(=O)C3CCCO3)ccc2N2CCCCC2)cc1 (stereo not drawn), the Potency was active: 39.8 µM.
Cc1cccc(NC(=O)COC(=O)c2ccc(C)c(S(=O)(=O)N3CCCCC3)c2)c1 was tested, and the Potency was inconclusive: 4.47 µM [inhibitor, partial curve, poor fit].
Cc1ccc(NC(=O)CN2CCN(c3ccccn3)CC2)c(Cl)c1 was tested, and the “activity, negative = inhibition” value was inactive: -47.1%.
CN1C(=O)C(C)(C)c2cc(S(=O)(=O)N3CCCC(C(=O)NCc4ccc(Cl)cc4)C3)ccc21 (stereo not drawn) was tested, and the Potency was inconclusive: 89.1 µM [inhibitor, single point].
For Brc1cc2c(cc1/C=N/Nc1nc3ccccc3s1)OCO2, the “activity, negative = inhibition” value was inactive: 24.8% [at 102 µM].
In the case of CCOC(=O)c1c(C=O)c(C)n(Cc2ccccc2)c1C, the Potency was inconclusive: 89.1 µM [inhibitor, single point].
For CCOC(=O)[C@@H]1[C@H]2COc3ccccc3[C@@H]2N2C(=O)N(c3ccccc3)C(=O)[C@]12C, the “activity, negative = inhibition” value was inactive: -11% [at 102 µM].
With O=C(Cn1cncc1-c1ccc([N+](=O)[O-])cc1)Nc1cccc2ccccc12 the Potency was inconclusive: 89.1 µM [inhibitor, single point].
For O=C(c1ccccc1)N1CCN(C(=O)c2cccnc2)CC1, the Potency was inconclusive: 79.4 µM [inhibitor, single point].
For COc1cc2cc(CCOC(=O)N3CCCCC3)oc(=O)c2cc1OC, the activity, negative = inhibition was inactive: 5.26% [at 0.501 µM].
CC(C)NC(=O)c1ccc2c(=O)n(C3CCCC3)c(=S)[nH]c2c1 was tested, and the “activity, negative = inhibition” value was inactive: 24.4%.
In the case of NS(=O)(=O)c1ccc(N/C=C/C(=O)c2ccc(Br)cc2)cc1, the Potency was inconclusive: 35.5 µM [inhibitor, single point].
In the case of O=C1c2ccccc2C(=O)N1CSc1nnc(Nc2ccccc2F)s1, the Potency was active: 10 µM.
CC(=O)c1cccc(N=Cc2c(O)ccc3ccccc23)c1 was tested, and the Potency was active: 1.58 µM.
With CC(=O)c1ccc(N2CCN(C(=O)CCC(=O)Nc3ccc4nc(N5CCN(C)CC5)cc(C)c4c3)CC2)cc1 the Potency was inconclusive: 89.1 µM [inhibitor, single point].
With CN(Cc1ccccc1)c1ccc(-c2nc(-c3ccccn3)no2)cc1[N+](=O)[O-] the Potency was inconclusive: 35.5 µM [inhibitor, partial curve, poor fit].
For COCCCn1c(=NC(C)=O)c(C#N)cc2c(=O)n3cccc(C)c3nc21, the Potency was inconclusive: 5.62 µM [inhibitor, single point].
With COc1cccc(N2CCN(C(=O)c3cc4cc5cc(C)ccc5nc4s3)CC2)c1 the “activity, negative = inhibition” value was inactive: 6.87%.
For CCOC(=O)C(C(C)=O)C(c1ccc(OCCC(C)C)cc1)C(C(C)=O)C(=O)OCC (stereo not drawn), the Potency was inconclusive: 39.8 µM [inhibitor, partial curve, poor fit].
With C[N+]1(CCNC(=O)/C=N/O)CCCCC1 the activity, negative = inhibition was inconclusive: -76.7% [inhibitor].
CCN(CC)c1ccc(CNc2ccc3c(c2)ncn3C(C)(C)C)cc1 was tested, and the Potency was active: 14.1 µM.
For Cc1ccc(CN(Cc2ccco2)C(=S)NCC(=O)O)cc1, the Potency was active: 31.6 µM.
With Cc1ccc(S(=O)(=O)N(C)c2ccc(OCC(=O)NCc3ccco3)cc2)cc1 the Potency was inconclusive: 79.4 µM [inhibitor, single point].
For C=CCn1c(=O)[nH]c2nc3cc(N=CN(C)C)c(C)cc3nc2c1=O, the Potency was inconclusive: 50.1 µM [inhibitor, partial curve].
Cc1ccccc1OCCn1c(-c2ccc(Cl)cc2)nc2ccccc2c1=O was tested, and the Potency was inconclusive: 0.708 µM [inhibitor, partial curve, poor fit].
For CC(=O)Nc1ccc(NC(=S)NC(=O)c2ccc(C(C)(C)C)cc2)cc1, the activity, negative = inhibition was inactive: -48.6% [at 12.7 µM].
Cc1nc2cc(NC(=O)c3ccc([N+](=O)[O-])s3)ccc2s1 was tested, and the Potency was inconclusive: 10 µM [inhibitor, full curve].
In the case of COc1ccc(N2CCN(C(=O)CCCC3=NS(=O)(=O)c4ccccc4N3)CC2)cc1, the Potency was inconclusive: 50.1 µM [inhibitor, partial curve, poor fit].
For COc1cc(OC)cc(C(=O)NC2=NCCS2)c1, the Potency was inconclusive: 50.1 µM [inhibitor, partial curve, poor fit].
With O=[N+]([O-])c1ccc(Oc2cc(NC3CCCCCCC3)c([N+](=O)[O-])cc2[N+](=O)[O-])cc1 the Potency was active: 39.8 µM.
In the case of O=C(O)C1Nc2c(cccc2C(F)(F)F)C2C=CCC12 (stereo not drawn), the Potency was active: 2.51 µM.
In the case of CSc1nnc(-c2ccc([N+](=O)[O-])cc2)o1, the Potency was inconclusive: 50.1 µM [inhibitor, partial curve].
In the case of Oc1ccccc1CNc1cccc2cccnc12, the Potency was inconclusive: 44.7 µM [inhibitor, partial curve, poor fit].
For O=C(Nc1cccc(Cl)c1)c1ccc2c(c1)CCN2S(=O)(=O)c1ccccc1, the “activity, negative = inhibition” value was inactive: -1.09%.
For Oc1c(C=NCc2ccc(F)cc2)[nH]c2ccc(Br)c(Cl)c12, the Potency was inconclusive: 3.16 µM [inhibitor, partial curve, poor fit].
In the case of C/C=C\C=C/C(=O)Nc1cccc(C2=NOC3(C2)C[C@@H](C(N)=O)N(C(=O)c2ccc(Cl)cc2)C3)c1 (stereo partly drawn), the Potency was inconclusive: 2 µM [inhibitor, partial curve, poor fit].
For O=C(OCc1cc(=O)n2nc(C3CCCCC3)sc2n1)c1ccc(F)cc1, the “activity, negative = inhibition” value was inactive: -27%.
With CCOC(=O)c1ccc(NC(=O)CSc2ncccn2)cc1 the Potency was inconclusive: 2.82 µM [inhibitor, partial curve, poor fit].
With NC(=O)COc1c(-c2ccco2)oc2ccccc2c1=O the “activity, negative = inhibition” value was inactive: -50.4% [at 102 µM].
In the case of O=C(O)/C=C/C(=O)NCC1CCC(CNC(=O)/C=C/C(=O)O)CC1 (stereo not drawn), the Potency was inconclusive: 56.2 µM [inhibitor, partial curve].
